# Assay results: article PMC12136788
# This is one part of the list.
# T1: UNK ZnF1-3 (human, UniProt Q9C0B0 31-174)
# T1 sequence: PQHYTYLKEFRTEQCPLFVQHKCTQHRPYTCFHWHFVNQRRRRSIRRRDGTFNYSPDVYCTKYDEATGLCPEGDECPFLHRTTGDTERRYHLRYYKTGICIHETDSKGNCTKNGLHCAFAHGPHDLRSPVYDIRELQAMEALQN
# B1: chr3:149684035:149684036:-_ENSG00000070087_ENST00000452853|hu_mus|FALSE|FALSE (ssRNA)
# RNA: GGGAGUUCUACAGUCCGACGAUCAGUUCAUAUGUUUUCUUGUUAAUUGUGCCUGCGUGGACACCUUCCUUUCCCAUGACUAUAACCAAUGCUGGAGUACACAAGGAAACAAAACAAAAAUGAACACAAUUAUUUAAGGGGAAGCAACAGAGGAUUGAGCAUCA
# B2: chr6:74304526:74304527:-_ENSG00000119899_ENST00000355773|hu_hu|FALSE|FALSE (ssRNA)
# RNA: GGGAGUUCUACAGUCCGACGAUCUAAUUAAGCAAAGGUAUCAGGAGGUCUGUUUCAGCUCAUUCCCUUUAGUAUGGCCCUAAAAAAUCAACAGAACUGUCCUACUUCAUGUUGCCCGACUAGCAGGCAGGUAUGUGAACCUAACAACAGAGGAUUGAGCAUCA
# B3: chr3:184044699:184044700:+_ENSG00000114867_ENST00000411531|hu_hu|FALSE|FALSE (ssRNA)
# RNA: GGGAGUUCUACAGUCCGACGAUCAUUAUCUGUGCUUUCUGUGGGUACCGCUUGUUGAAGGGCUGAGAAGCGAUUCAAAGUACUAGUAGCUGGGCGAGCAGCUUCUGAUGCUGCGUCUGAGGGCUUGGCUCCUGAGCCUCCGCUCAACAGAGGAUUGAGCAUCA
# B4: chr12:105540249:105540250:+_ENSG00000136051_ENST00000332180|hu_hu|FALSE|FALSE (ssRNA)
# RNA: GGGAGUUCUACAGUCCGACGAUCAUUGUUGAGAUUAUAGAGGUAUCGGGACACAAAUAUAUGAAUGUUUCUCAUAAUUUCUAAAACAUCAAGGCCCUGUUCCAAAGUCUGACUGGGAAGAUGUGCCUCUGUCAUAACCAGUCCCAACAGAGGAUUGAGCAUCA
# B5: chr1:109605286:109605287:-_ENSG00000197780_ENST00000461096|hu_mus|hu_hu_hu_mus_True|58_98 (ssRNA)
# RNA: GGGAGUUCUACAGUCCGACGAUCAAGUUUCAGAGUAUUCAGUGAUCACCUCUUUAAAUGCAAUUAUCCUUAUUAUAAACUAAGGGCAAUAAUAAUUUAAUACCGUAAGUGAACUACACACAAAGCCUGAACCGCGAAAAUGGUCAACAGAGGAUUGAGCAUCA
# B6: chr3:10015032:10015033:+_ENSMUSG00000027533_ENSMUST00000029046|mus_mus|mus_mus_mus_hu_True|8_68 (ssRNA)
# RNA: GGGAGUUCUACAGUCCGACGAUCGUUUUUACCAUCACAAGUGAUGAUACAAUCUGGCUUGGCCAUUGCAGCCAUCUUUCGCAAAGCUAUUCCCACUCCUAGCUCCUUCAUGUAUUCAUCAAAGCCUUGGCUUUCCACCAGGCGCAACAGAGGAUUGAGCAUCA
# Target: T1, UNK ZnF1-3
# Assay: nsRBNS (natural sequence RNA bind-n-seq); RBNS binding buffer (assumed for nsRBNS): 25 mM Tris pH 7.5, 150 mM KCl, 3 mM MgCl2, 0.01% Triton X-100, 500 ug/ml BSA, 20 U/ml SUPERase-In, 4 C; UNK is unkempt and MSI1 is Musashi-1; names of the RNAs are library labels; protein concentration not given here; high values mean tight binding
row,Binder,binding signal
1,B1,1.4 enrichment R
2,B2,0.906 enrichment R
3,B3,0.7 enrichment R
4,B4,1.14 enrichment R
5,B5,1.19 enrichment R
6,B6,0.683 enrichment R
